Experimental data published in PubChem BioAssay AID1240 (Sanford-Burnham Center for Chemical Genomics, 2008).
The campaign covered roughly 50,000 compounds. About 800 (1.6%) showed an effect of 50% or more. The list shows a part of the results.

Target: Bcl-2-like protein 10 (Homo sapiens) (UniProt Q9HD36)
Test: TR3 peptide-Bcl-B binding displacers, biochemical primary FP assay, phenotype converters (AID 1240);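 further: 0% = Bcl-B with tracer peptide and DMSO and 100% = tracer peptide lacking Bcl-B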
Conditions: GST-Bcl-B / FITC-TR3 peptide fluorescence polarization; stronger effect = higher value; compound at 3.75 mg/L

Sequence of UniProt Q9HD36 (Q9HD36 whole entry, looked up): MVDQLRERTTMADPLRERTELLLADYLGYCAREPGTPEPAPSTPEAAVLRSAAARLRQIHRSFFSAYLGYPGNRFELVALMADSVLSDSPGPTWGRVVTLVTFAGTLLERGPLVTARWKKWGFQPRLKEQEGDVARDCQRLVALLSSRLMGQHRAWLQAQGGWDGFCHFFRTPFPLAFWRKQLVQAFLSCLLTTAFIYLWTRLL

Row | Compound | displacement
1 | COc1ccccc1NC(=O)c1ccccc1NC(=O)c1cccs1 | 3%
2 | CC1=C(C(=O)OC2CCCC2C)C(c2ccc(Br)cc2)NC(=O)N1 (stereo not drawn) | 3.9%
3 | O=C(CSc1nnc(-c2ccco2)n1-c1ccccc1)c1ccc2c(c1)Cc1ccccc1-2 | -20.5%
4 | O=C(Nc1ccccc1)Nc1nnc(Cc2cccc(Br)c2)s1 | 1.9%
5 | COc1ccc(CNS(=O)(=O)c2ccccc2[N+](=O)[O-])cc1 | -7.4%
6 | O=C(CSCC(=O)Nc1ccc2ccccc2c1)Nc1ccc(F)cc1 | 15.6%
7 | CC(C)(C)c1cc(/C=c2/sc3nc4ccccc4n3c2=O)cc(C(C)(C)C)c1O | -4.5%
8 | O=C1CSC(=Nc2ccc(O)cc2)N1 | 9.3%
9 | O=C1NC(=O)N(c2ccc(I)cc2)C(=O)/C1=C\C=C\c1ccco1 | 17.6%
10 | CCn1cc(/C=C(/C#N)C(=O)Nc2ccc(OC)cc2)c2ccccc21 | -3.5%
11 | Cc1ccc(Cl)cc1NC(=O)CSc1nc2ccccc2s1 | 22.8%
12 | CCCC(=O)NC(c1ccc(C)cc1)c1c(OC(C)=O)ccc2ccccc12 (stereo not drawn) | 10.1%
13 | O=C(NCc1cccnc1)C(=O)N1CCCC1 | 11.3%
14 | O=C(NCCCn1ccnc1)C(O)(c1ccccc1)c1ccccc1 | -11.4%
15 | COP(=O)(OC)C(Nc1cccc(C(F)(F)F)c1)c1ccc(Cl)cc1 (stereo not drawn) | 15.1%
16 | COc1ccc(C2CC(=O)C3=C(C2)Nc2ccccc2NC3c2cc(C)ccc2C)cc1 (stereo not drawn) | -3.7%
17 | O=C(NNC(=O)C1CCCO1)c1ccc(Cl)cc1 (stereo not drawn) | -5.2%
18 | O=C(O)c1cc(C(=O)O)c2cc(Cl)ccc2n1 | 4.4%
19 | O=C(c1cccnc1)N1CCCc2ccccc21 | 6.5%
20 | CCOc1cc(/C=C2/SC(=S)N(Cc3ccccc3)C2=O)ccc1OCc1ccccc1 | 22.7%
21 | CCOC(=O)C1=C(C)NC(=O)NC1c1ccc(OC)cc1 (stereo not drawn) | 12.4%
22 | CC(C)C1=NN2C(=N)/C(=C/c3ccc(-c4ccc([N+](=O)[O-])cc4)o3)C(=O)N=C2S1 | 111%
23 | COc1ccc(Cc2c(O)nc(SCC(=O)Nc3ccccc3OC)[nH]c2=O)cc1 | -0.7%
24 | CN(C)c1ccc(N/C(N)=N/c2nc(C(F)(F)F)cc(=O)[nH]2)cc1 | -5.8%
25 | COC(=O)C1CC(=O)N(c2ccc(O)cc2)C1 (stereo not drawn) | 10.4%

Row | Compound | displacement
26 | CC(C)(C)c1ccc(C(=O)NCc2ccccn2)cc1 | 6%
27 | COc1ccc(OC)c(C2C=C(Nc3ccccc3)C(=O)N2c2ccccc2)c1 (stereo not drawn) | -1.5%
28 | COc1cc(NC(=O)c2ccc(Cl)c(Cl)c2)c(OC)cc1NC(C)=O | 6.3%
29 | COn1c(=O)c(=O)n(OC)c2ccccc21 | 9.9%
30 | CN(C)C(=O)c1ccc(Br)cc1 | 1.7%
31 | COc1cccc(C2=N/C(=C\N(C)C)C(=O)O2)c1 | 0.4%
32 | COc1cc2c(C)nc3c(c(C)nn3C)c2cc1OC | -1.5%
33 | Nc1ccc(Nc2nc(-c3ccc(Br)cc3)cs2)cc1 | 11.4%
34 | CC(=O)NS(=O)(=O)c1ccc(NC(=O)c2ccc3c(c2)OCO3)cc1 | 19.5%
35 | O=C(NC(=S)N1CCOCC1)c1ccccc1 | 12.2%
36 | Clc1ccc(-c2nnc(-c3cccs3)o2)cc1 | -3.6%
37 | CC1=CC(C)(C)N(C(=O)C(C)N2C(=O)c3ccccc3C2=O)c2cc(C)ccc21 (stereo not drawn) | 9.7%
38 | COc1ccc(C2C(C(C)=O)=C(O)C(=O)N2CCN(C)C)cc1OC (stereo not drawn) | -7%
39 | O=C(Nc1cccc(Cl)c1)c1cc2nc(-c3ccc4c(c3)OCO4)cc(C(F)(F)F)n2n1 | 28.1%
40 | Oc1cccc(-n2c(O)c(/C=C3\C=Nc4ccccc43)sc2=S)c1 | -26.6%
41 | CCN(CC)CC1OCc2ccccc2CO1 | -11.3%
42 | COc1ccc(/C=C2\SC(=S)N(CCC(N)=O)C2=O)cc1 | -0.6%
43 | COc1ccc(S(=O)(=O)N2CCN(Cc3ccc([N+](=O)[O-])cc3)CC2)cc1 | -9.1%
44 | COc1ccc(/C=C/C(=O)Nc2ccc(OC)c(OC)c2)cc1OC | -7.8%
45 | CCS/C(=N/Nc1ccc(C)cc1)C(C)=O | 6.3%
46 | CS(=O)(=O)N(CC(=O)N1CCOCC1)c1ccccc1Cl | 9.5%
47 | CCN(CC)C(=O)COc1ccc(-c2ccccc2)cc1 | 16.6%
48 | c1ccc(-c2cn3c4c(sc3n2)CCCC4)cc1 | -6%
49 | CCOC(=O)c1cc2ccc(O)cc2oc1=O | 15.7%
50 | Cc1ccccc1NC(=O)CN(c1ccc(Cl)cc1)S(C)(=O)=O | 8%

Row | Compound | displacement
51 | CC(=O)NC1=NN(C(C)=O)C(C)(c2cccc(NC(C)=O)c2)S1 (stereo not drawn) | -5.9%
52 | COc1ccccc1OCCNC(=O)c1ccc(F)c2ccccc12 | -8.4%
53 | O=C(c1sc2cc(F)ccc2c1Cl)N1CCCCC1 | 9.1%
54 | O=C1N/C(=N/N=C/c2cccs2)SC1Cc1ccc(Cl)cc1Cl (stereo not drawn) | 5.1%
55 | O=C(c1ccccc1Cl)N(C1CCCCC1)C1CCCCC1 | -0.7%
56 | O=C(CSc1nc2ccccc2o1)Nc1ccc2c(c1)OCO2 | 11.9%
57 | COc1ccc(C(=O)Nc2nc(C34CC5CC(CC(C5)C3)C4)cs2)cc1 | 10%
58 | Cc1cc(C)c2nc3s/c(=C/c4cc([N+](=O)[O-])ccc4Cl)c(=O)n3c2c1 | -9.4%
59 | Cc1ccc(C(=O)N2c3ccccc3-c3c(ssc3=S)C2(C)C)cc1 | -9.2%
60 | CC(=O)Oc1ccc2nc(-c3ccc(C(C)(C)C)cc3)oc(=O)c2c1 | -1.2%
61 | Cc1nn(-c2ccc(Br)cc2)c(=O)c2ccccc12 | -0.3%
62 | O=C(NC(NC(=S)Nc1cccc2ccccc12)C(Cl)(Cl)Cl)c1ccccc1 (stereo not drawn) | 18.6%
63 | CCOC(=O)c1ccc(-c2ccc(/C=C3/C(=O)NC(=O)N(c4ccccc4)C3=O)o2)cc1 | 88.5%
64 | CCOC(=O)c1ccc(P(C)(C)=O)cc1 | 1.6%
65 | CCOc1ccc(N2C(=O)C3C(C2=O)C2(C)C(=O)C3(C)C(c3ccccc3)=C2c2ccccc2)cc1 (stereo not drawn) | -3.4%
66 | Cc1ccc(/C=N/NC(=O)Cc2nnc(N)s2)cc1 | 2.2%
67 | COC(=O)c1nnn(-c2cc3nccnc3cc2F)c1C(=O)OC | 14.8%
68 | Cc1ccc(N(CC(=O)NCC(C)NC(=O)CN(c2ccc(C)cc2)S(C)(=O)=O)S(C)(=O)=O)cc1 (stereo not drawn) | 8.3%
69 | Cc1sc(NC(=O)c2ccco2)c(C(N)=O)c1C | -1.7%
70 | COc1ccc(CNCc2ccc([N+](=O)[O-])cc2)c(OC)c1 | 1.2%
71 | O=S(=O)(NCCc1ccccc1)c1ccc(Br)cc1 | -9.7%
72 | Cc1c(OCC(=O)OC(C)C)ccc2c3c(c(=O)oc12)CCCC3 | -5.1%
73 | Nc1c(Cl)cc(N2C(=O)C3C4c5ccccc5C(c5ccccc54)C3C2=O)cc1Cl (stereo not drawn) | 2.4%
